Patent US20040063910A1 (CHIRON, published 2004)

Target: basic FGF (bFGF) (UniProt P09038 in part, limits assumed, 125I label on the tracer form)
Experiment: cell-based or functional assay

Chain of UniProt P09038 (P09038 143-288 limits assumed): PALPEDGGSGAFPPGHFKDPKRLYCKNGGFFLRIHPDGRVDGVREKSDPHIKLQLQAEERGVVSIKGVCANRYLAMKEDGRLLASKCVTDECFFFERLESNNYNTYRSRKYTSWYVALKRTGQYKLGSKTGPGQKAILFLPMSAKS

B1: FGFR-Ig Fc fusion protein dimer according to Construct #1 (Fc fusion)
chain: RPSPTLPEQAQPWGAPVEVESFLVHPGDLLQLRCRLRDDVQSINWLRDGVQLAESNRTRITGEEVEVQDSVPADSGLYACVTSSPSGSDTTYFSVNVSDALPSSEDDDDDDDSSSEEKETDNTKPNPVAPYWTSPEKMEKKLHAVPAAKTVKFKCPSSGTPNPTLRWLKNGKEFKPDHRIGGYKVRYATWSIIMDSVVPSDKGNYTCIVENEYGSINHTYQLDVVERSPHRPILQAGLPANKTVALGSNVEFMCKVYSDPQPHIQWLKHIEVNGSKIGPDNLPYVQILKTAGVNTTDKEMEVLHLRNVSFEDAGEYTCLAGNSIGLSHHSAWLTVLEALEERPAVMTSPLYLESRGGLVPRGSGSPGLQ[human IgG1 Fc not listed]
notes: Dimer through the IgG1 hinge; also called FGFR ECD Ig; FGFR-Ig Fc fusion dimer
  inhibition of HUVEC proliferation in the presence of serum and bFGF, potency against FGFR monomer: 10 fold
